# Test results as given in the supplement of paper PMC8728848.
# The other results are listed elsewhere or left out.
# B1: SAG3 (Toxoplasma gondii), Q9BJ39 (protein)
# chain: MQLWRRRAAGPASLGRQSLPLGCFFAAFGLCVLSAILGTGERGLFVAAGNSRRKITYFGTLTQKAPNWYRCSSTRAKEEVVGHVTLNKEHPDMTIECVDDGLGGEFLPLEGARSSYPRVCHIDAKDQDDCERNRGFLTDYIPGAKQYWYKIEKVEQNGEQSVLYKFTVPWILLPPAKQRYKVGCRYPNHEYCFVEVTVEPTPPMVEGKRVTCGYSESGPVNLEVDLSKNANFIEIRCGEQHHPQPSTYTLQYCSGDSVDPQKCSPQSLTNIFYDYSSSWWKGKLNGPDGATLTIPPGGFPEEDKSFLVGCSLTVDGPPFCNVKVRVAGNPRKWERGGGGHPGSGGLQPGTDGETQAGTGSSAGASSRMASVALAFLLGLLVHVAA
# Experiments:
# Test in all cases: glycan array binding signal (z-score within array); higher = stronger binding
# Settings in all cases: glycan notation: IUPAC condensed, linker removed
# [1] = target: Kdn(a2-3)Gal(b1-4)[Fuc(a1-3)]GlcNAc
# In short: (§1)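 The binding signal is a Z-score computed within each array and averaged over linkers. Arrays of the same protein sequence at different concentrations or buffers were also averaged together. Data originate from 3228 arrays in the Consortium for Functional Glycomics database, kept only where the protein sequence was available.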
# Kdn(a2-6)Gal(b1-4)GlcNAc = target: Kdn(a2-6)Gal(b1-4)GlcNAc
# In short: as §1
# [2] = target: Man(a1-2)Man(a1-2)Man(a1-3)Man
# In short: as §1
# [3] = target: Man(a1-2)Man(a1-2)Man(a1-6)[Man(a1-3)]Man
# In short: as §1
# Man(a1-2)Man(a1-3)Man = target: Man(a1-2)Man(a1-3)Man
# In short: as §1
# [4] = target: Man(a1-2)Man(a1-3)[Man(a1-2)Man(a1-6)]Man
# In short: as §1
# [5] = target: Man(a1-2)Man(a1-3)[Man(a1-2)Man(a1-6)]Man(a1-6)[Man(a1-2)Man(a1-2)Man(a1-3)]Man
# In short: as §1
# [6] = target: Man(a1-2)Man(a1-3)[Man(a1-2)Man(a1-6)]Man(a1-6)[Man(a1-2)Man(a1-2)Man(a1-3)]Man(b1-4)GlcNAc(b1-4)GlcNAc
# In short: as §1
# [7] = target: Man(a1-2)Man(a1-3)[Man(a1-6)]Man(a1-6)[Man(a1-2)Man(a1-3)]Man(b1-4)GlcNAc(b1-4)GlcNAc
# In short: as §1
# [8] = target: Man(a1-2)Man(a1-6)[Man(a1-3)]Man(a1-6)[Man(a1-2)Man(a1-2)Man(a1-3)]Man
# In short: as §1
# [9] = target: Man(a1-2)Man(a1-6)[Man(a1-3)]Man(a1-6)[Man(a1-2)Man(a1-2)Man(a1-3)]Man(b1-4)GlcNAc(b1-4)GlcNAc
# In short: as §1
# Man(a1-3)[Man(a1-6)]Man = target: Man(a1-3)[Man(a1-6)]Man
# In short: as §1
# [10] = target: Man(a1-3)[Man(a1-6)]Man(a1-6)[Man(a1-2)Man(a1-3)]Man(b1-4)GlcNAc(b1-4)GlcNAc
# In short: as §1
# [11] = target: Man(a1-3)[Man(a1-6)]Man(a1-6)[Man(a1-3)]Man
# In short: as §1
# [12] = target: Man(a1-3)[Man(a1-6)]Man(a1-6)[Man(a1-3)]Man(b1-4)GlcNAc(b1-4)GlcNAc
# In short: as §1
# [13] = target: Man(a1-3)[Man(a1-6)]Man(b1-4)GlcNAc(b1-4)GlcNAc
# In short: as §1
# Man(a1-6)Man = target: Man(a1-6)Man
# In short: as §1
# Man(b1-4)GlcNAc = target: Man(b1-4)GlcNAc
# In short: as §1
# Neu5Ac(a2-3)Gal = target: Neu5Ac(a2-3)Gal
# In short: as §1
# [14] = target: Neu5Ac(a2-3)Gal(b1-3)GalNAc
# In short: as §1
# [15] = target: Neu5Ac(a2-3)Gal(b1-3)GalNAc(b1-3)Gal(a1-4)Gal(b1-4)Glc
# In short: as §1
# [16] = target: Neu5Ac(a2-3)Gal(b1-3)GalNAc(b1-4)[Neu5Ac(a2-3)]Gal(b1-4)Glc
# In short: as §1
# [17] = target: Neu5Ac(a2-3)Gal(b1-3)GalNAc6S
# In short: as §1
# [18] = target: Neu5Ac(a2-3)Gal(b1-3)GlcNAc
# In short: as §1
# [19] = target: Neu5Ac(a2-3)Gal(b1-3)GlcNAc(b1-2)Man(a1-3)[Neu5Ac(a2-3)Gal(b1-3)GlcNAc(b1-2)Man(a1-6)]Man(b1-4)GlcNAc(b1-4)GlcNAc
# In short: as §1
# [20] = target: Neu5Ac(a2-3)Gal(b1-3)GlcNAc(b1-3)Gal(b1-3)GlcNAc
# In short: as §1
# [21] = target: Neu5Ac(a2-3)Gal(b1-3)GlcNAc(b1-3)Gal(b1-4)GlcNAc
# In short: as §1
# [22] = target: Neu5Ac(a2-3)Gal(b1-3)GlcNAc(b1-3)GalNAc
# In short: as §1
# [23] = target: Neu5Ac(a2-3)Gal(b1-3)GlcNAc6S
# In short: as §1
# [24] = target: Neu5Ac(a2-3)Gal(b1-3)[Fuc(a1-4)]GlcNAc
# In short: as §1
# [25] = target: Neu5Ac(a2-3)Gal(b1-3)[Fuc(a1-4)]GlcNAc(b1-3)Gal(b1-3)[Fuc(a1-4)]GlcNAc
# In short: as §1
# [26] = target: Neu5Ac(a2-3)Gal(b1-3)[Fuc(a1-4)]GlcNAc(b1-3)Gal(b1-4)[Fuc(a1-3)]GlcNAc
# In short: as §1
# [27] = target: Neu5Ac(a2-3)Gal(b1-3)[Neu5Ac(a2-3)Gal(b1-4)]GlcNAc
# In short: as §1
# [28] = target: Neu5Ac(a2-3)Gal(b1-3)[Neu5Ac(a2-6)]GalNAc
# In short: as §1
# Neu5Ac(a2-3)Gal(b1-4)Glc = target: Neu5Ac(a2-3)Gal(b1-4)Glc
# In short: as §1
binder,measurement,setting,value
B1,glycan array binding signal (z-score),[1],0.498
same,glycan array binding signal (z-score),Kdn(a2-6)Gal(b1-4)GlcNAc,-0.489
same,glycan array binding signal (z-score),[2],-0.156
same,glycan array binding signal (z-score),[3],0.913
same,glycan array binding signal (z-score),Man(a1-2)Man(a1-3)Man,-0.077
same,glycan array binding signal (z-score),[4],-0.088
same,glycan array binding signal (z-score),[5],-0.065
same,glycan array binding signal (z-score),[6],-0.609
same,glycan array binding signal (z-score),[7],-0.252
same,glycan array binding signal (z-score),[8],-0.113
same,glycan array binding signal (z-score),[9],-0.029
same,glycan array binding signal (z-score),Man(a1-3)[Man(a1-6)]Man,0.34
same,glycan array binding signal (z-score),[10],-0.582
same,glycan array binding signal (z-score),[11],-0.388
same,glycan array binding signal (z-score),[12],-0.278
same,glycan array binding signal (z-score),[13],-0.298
same,glycan array binding signal (z-score),Man(a1-6)Man,0.224
same,glycan array binding signal (z-score),Man(b1-4)GlcNAc,-0.301
same,glycan array binding signal (z-score),Neu5Ac(a2-3)Gal,0.268
same,glycan array binding signal (z-score),[14],-0.17
same,glycan array binding signal (z-score),[15],-0.043
same,glycan array binding signal (z-score),[16],-0.184
same,glycan array binding signal (z-score),[17],-0.559
same,glycan array binding signal (z-score),[18],-0.331
same,glycan array binding signal (z-score),[19],0.056
same,glycan array binding signal (z-score),[20],0.436
same,glycan array binding signal (z-score),[21],-0.148
same,glycan array binding signal (z-score),[22],-0.032
same,glycan array binding signal (z-score),[23],-0.191
same,glycan array binding signal (z-score),[24],0.21
same,glycan array binding signal (z-score),[25],0
same,glycan array binding signal (z-score),[26],-0.301
same,glycan array binding signal (z-score),[27],-0.698
same,glycan array binding signal (z-score),[28],0.254
same,glycan array binding signal (z-score),Neu5Ac(a2-3)Gal(b1-4)Glc,-0.168
